Our source for the AC50 values is PubChem BioAssay (NCATS).

Some of the results follow. The main result of the screen is listed elsewhere. These columns were measured beside it and carry no call. Words in brackets tell the shape of the fitted curve; partial curves, single points and poor fits give uncertain potencies.
Tags describe the fitted curve by direction and shape.

The nature of the first assay: qHTS drug screen for cell cycle checkpoint inhibitors in PARPi-resistant BRCA-mutant ovarian cancer cell lines. (AID 1963452). Particulars: PEO1/OlaR viability, CellTiter-Glo luminescence, 96 h; measured here: PEO1 parental viability. The method in brief:
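PEO1, PEO4 and PEO1/OlaR ovarian cancer cells, 600 per well, exposed 96 h at 37C to a dilution series. Viability read by CellTiter-Glo luminescence, normalized to DMSO and empty wells; activity summarized as Z-AUC.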
As to `O=C1NC(=O)C(c2cnc3ccccn23)=C1c1cn2c3c(cc(F)cc13)CN(C(=O)N1CCCCC1)CC2`, the AC50 was 77.6 nM [falling, full curve].

With `CCS(=O)(=O)N1CCN(c2ccc(Nc3ncc(C(N)=O)c(NC4CC4)n3)cc2)CC1`, the AC50 is 3890 nM [falling, partial curve].

As to `Nc1ncnc2c1c(-c1cnc3[nH]ccc3c1)nn2C1CCCC1`, the AC50 is 692 nM [falling, full curve].

Staying with this assay, now noted: PEO1/OlaR viability, CellTiter-Glo luminescence, 96 h; measured here: PEO4 viability.
Turning to `O=C1NC(=O)C(c2cnc3ccccn23)=C1c1cn2c3c(cc(F)cc13)CN(C(=O)N1CCCCC1)CC2`, the AC50 was 49 nM [falling, full curve].

Consider `CCS(=O)(=O)N1CCN(c2ccc(Nc3ncc(C(N)=O)c(NC4CC4)n3)cc2)CC1`, for which the AC50 was 6920 nM [falling, partial curve].

Take `Cn1cc(-c2ccc(F)c(C(F)(F)F)c2)nc1C1CCN(c2ncnc3[nH]ncc23)CC1`: the AC50 is 12300 nM [falling, partial curve].

`Nc1ncnc2c1c(-c1cnc3[nH]ccc3c1)nn2C1CCCC1`: the AC50 is 1550 nM [falling, full curve].
